Results reported in the supplement of paper PMC10441789.
This is one part of the list. Antibody binding of pooled human sera (four to six donors per pool; dilution not stated) to peptides of the Trypanosoma cruzi antigen TSSA on microarrays. Quantile-normalised fluorescence in arbitrary units, mean of duplicate arrays; higher = more binding. No active / inactive call. The uninfected pools are read here as the healthy donors of the same country. The strongest signals lie near the top of the scale (about 60,000).

What was measured:
Assay in all cases: antibody binding signal (normalised fluorescence) (arbitrary fluorescence units); higher = stronger serum antibody binding to peptide
[1] = test system: pooled sera of chronic Chagas disease patients, Argentina
Procedure: (§1)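 Microarray of 15-residue peptides over residues 30-55 of Trypanosoma cruzi TSSAII, each with 1 to 10 substitutions at naturally variable positions, probed with one serum pool per country.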

[2] = test system: pooled sera of chronic Chagas disease patients, Bolivia
Procedure: as §1

[3] = test system: pooled sera of chronic Chagas disease patients, Brazil
Procedure: as §1

[4] = test system: pooled sera of chronic Chagas disease patients, Colombia
Procedure: as §1

[5] = test system: pooled sera of chronic Chagas disease patients, Mexico
Procedure: as §1

[6] = test system: pooled sera of chronic Chagas disease patients, USA
Procedure: as §1

[7] = test system: pooled sera of uninfected people, Argentina
Procedure: as §1

[8] = test system: pooled sera of uninfected people, Bolivia
Procedure: as §1

[9] = test system: pooled sera of uninfected people, Brazil
Procedure: as §1

[10] = test system: pooled sera of uninfected people, Colombia
Procedure: as §1

[11] = test system: pooled sera of uninfected people, Mexico
Procedure: as §1

[12] = test system: pooled sera of uninfected people, USA
Procedure: as §1

KAATGGTPSPPGASS
antibody binding signal [1]: 466 | antibody binding signal [2]: 365 | antibody binding signal [3]: 217 | antibody binding signal [4]: 259 | antibody binding signal [5]: 293 | antibody binding signal [6]: 161 | antibody binding signal [7]: 284 | antibody binding signal [8]: 117 | antibody binding signal [9]: 385 | antibody binding signal [10]: 222 | antibody binding signal [11]: 99.2 | antibody binding signal [12]: 154

GTEKKTATGEAPSPP
antibody binding signal [1]: 12700 | antibody binding signal [2]: 20300 | antibody binding signal [3]: 14100 | antibody binding signal [4]: 1300 | antibody binding signal [5]: 2650 | antibody binding signal [6]: 21200 | antibody binding signal [7]: 187 | antibody binding signal [8]: 701 | antibody binding signal [9]: 184 | antibody binding signal [10]: 124 | antibody binding signal [11]: 120 | antibody binding signal [12]: 124

TPPSGKENKTAAGGT
antibody binding signal [1]: 20000 | antibody binding signal [2]: 4830 | antibody binding signal [3]: 4780 | antibody binding signal [4]: 1710 | antibody binding signal [5]: 5690 | antibody binding signal [6]: 3470 | antibody binding signal [7]: 2910 | antibody binding signal [8]: 1160 | antibody binding signal [9]: 1360 | antibody binding signal [10]: 489 | antibody binding signal [11]: 260 | antibody binding signal [12]: 264

SGTDNKTAAGGTPSQ
antibody binding signal [1]: 1880 | antibody binding signal [2]: 310 | antibody binding signal [3]: 44600 | antibody binding signal [4]: 6570 | antibody binding signal [5]: 441 | antibody binding signal [6]: 1390 | antibody binding signal [7]: 223 | antibody binding signal [8]: 646 | antibody binding signal [9]: 2420 | antibody binding signal [10]: 225 | antibody binding signal [11]: 2080 | antibody binding signal [12]: 279

PSGKDNKAATGETPS
antibody binding signal [1]: 3080 | antibody binding signal [2]: 1300 | antibody binding signal [3]: 13000 | antibody binding signal [4]: 1970 | antibody binding signal [5]: 1750 | antibody binding signal [6]: 10800 | antibody binding signal [7]: 300 | antibody binding signal [8]: 437 | antibody binding signal [9]: 249 | antibody binding signal [10]: 191 | antibody binding signal [11]: 123 | antibody binding signal [12]: 140

PSGKDKKTAAGGAPS
antibody binding signal [1]: 3390 | antibody binding signal [2]: 1340 | antibody binding signal [3]: 2490 | antibody binding signal [4]: 7550 | antibody binding signal [5]: 5290 | antibody binding signal [6]: 4880 | antibody binding signal [7]: 192 | antibody binding signal [8]: 289 | antibody binding signal [9]: 127 | antibody binding signal [10]: 170 | antibody binding signal [11]: 154 | antibody binding signal [12]: 186

SGTENKTAAGETPSP
antibody binding signal [1]: 31900 | antibody binding signal [2]: 7350 | antibody binding signal [3]: 13200 | antibody binding signal [4]: 401 | antibody binding signal [5]: 313 | antibody binding signal [6]: 4890 | antibody binding signal [7]: 353 | antibody binding signal [8]: 400 | antibody binding signal [9]: 174 | antibody binding signal [10]: 273 | antibody binding signal [11]: 209 | antibody binding signal [12]: 396

GKENKTATGGAPSPP
antibody binding signal [1]: 2850 | antibody binding signal [2]: 610 | antibody binding signal [3]: 8230 | antibody binding signal [4]: 5830 | antibody binding signal [5]: 4830 | antibody binding signal [6]: 15700 | antibody binding signal [7]: 533 | antibody binding signal [8]: 122 | antibody binding signal [9]: 99.9 | antibody binding signal [10]: 118 | antibody binding signal [11]: 172 | antibody binding signal [12]: 151

GTDKKTATGETPSPS
antibody binding signal [1]: 352 | antibody binding signal [2]: 427 | antibody binding signal [3]: 872 | antibody binding signal [4]: 1260 | antibody binding signal [5]: 387 | antibody binding signal [6]: 7570 | antibody binding signal [7]: 220 | antibody binding signal [8]: 335 | antibody binding signal [9]: 141 | antibody binding signal [10]: 135 | antibody binding signal [11]: 437 | antibody binding signal [12]: 2000

GTENKPAAGGTPSQP
antibody binding signal [1]: 47600 | antibody binding signal [2]: 2630 | antibody binding signal [3]: 10400 | antibody binding signal [4]: 1350 | antibody binding signal [5]: 1460 | antibody binding signal [6]: 1680 | antibody binding signal [7]: 446 | antibody binding signal [8]: 1970 | antibody binding signal [9]: 1280 | antibody binding signal [10]: 414 | antibody binding signal [11]: 565 | antibody binding signal [12]: 164

TPPSGKEKKPATGET
antibody binding signal [1]: 17800 | antibody binding signal [2]: 474 | antibody binding signal [3]: 3270 | antibody binding signal [4]: 744 | antibody binding signal [5]: 24800 | antibody binding signal [6]: 1320 | antibody binding signal [7]: 719 | antibody binding signal [8]: 1360 | antibody binding signal [9]: 136 | antibody binding signal [10]: 526 | antibody binding signal [11]: 1290 | antibody binding signal [12]: 1020

KEKKPAAGETPSPPG
antibody binding signal [1]: 184 | antibody binding signal [2]: 218 | antibody binding signal [3]: 611 | antibody binding signal [4]: 181 | antibody binding signal [5]: 147 | antibody binding signal [6]: 765 | antibody binding signal [7]: 106 | antibody binding signal [8]: 114 | antibody binding signal [9]: 93.1 | antibody binding signal [10]: 92.9 | antibody binding signal [11]: 105 | antibody binding signal [12]: 508

KAATGEAPSQPGASS
antibody binding signal [1]: 28100 | antibody binding signal [2]: 16200 | antibody binding signal [3]: 47000 | antibody binding signal [4]: 150 | antibody binding signal [5]: 323 | antibody binding signal [6]: 24500 | antibody binding signal [7]: 315 | antibody binding signal [8]: 139 | antibody binding signal [9]: 141 | antibody binding signal [10]: 126 | antibody binding signal [11]: 164 | antibody binding signal [12]: 149

SGKEKKPATGETPSP
antibody binding signal [1]: 30600 | antibody binding signal [2]: 3050 | antibody binding signal [3]: 21300 | antibody binding signal [4]: 1610 | antibody binding signal [5]: 3510 | antibody binding signal [6]: 21000 | antibody binding signal [7]: 323 | antibody binding signal [8]: 417 | antibody binding signal [9]: 126 | antibody binding signal [10]: 180 | antibody binding signal [11]: 617 | antibody binding signal [12]: 496

TDKKTATGGTPSQPG
antibody binding signal [1]: 1040 | antibody binding signal [2]: 715 | antibody binding signal [3]: 1050 | antibody binding signal [4]: 4770 | antibody binding signal [5]: 661 | antibody binding signal [6]: 1640 | antibody binding signal [7]: 559 | antibody binding signal [8]: 127 | antibody binding signal [9]: 348 | antibody binding signal [10]: 877 | antibody binding signal [11]: 1080 | antibody binding signal [12]: 135

SGTENKPAAGGTPSP
antibody binding signal [1]: 45400 | antibody binding signal [2]: 19700 | antibody binding signal [3]: 35200 | antibody binding signal [4]: 1410 | antibody binding signal [5]: 1320 | antibody binding signal [6]: 8290 | antibody binding signal [7]: 619 | antibody binding signal [8]: 2150 | antibody binding signal [9]: 857 | antibody binding signal [10]: 642 | antibody binding signal [11]: 384 | antibody binding signal [12]: 163

GKENKAATGEAPSQS
antibody binding signal [1]: 30100 | antibody binding signal [2]: 12700 | antibody binding signal [3]: 34500 | antibody binding signal [4]: 10900 | antibody binding signal [5]: 11900 | antibody binding signal [6]: 31300 | antibody binding signal [7]: 678 | antibody binding signal [8]: 152 | antibody binding signal [9]: 105 | antibody binding signal [10]: 151 | antibody binding signal [11]: 153 | antibody binding signal [12]: 154

KDKKTATGEAPSQSG
antibody binding signal [1]: 4190 | antibody binding signal [2]: 3080 | antibody binding signal [3]: 8130 | antibody binding signal [4]: 194 | antibody binding signal [5]: 214 | antibody binding signal [6]: 14100 | antibody binding signal [7]: 159 | antibody binding signal [8]: 84.5 | antibody binding signal [9]: 91.1 | antibody binding signal [10]: 85 | antibody binding signal [11]: 98.6 | antibody binding signal [12]: 85

TPPSGTENKTAAGGT
antibody binding signal [1]: 52600 | antibody binding signal [2]: 44500 | antibody binding signal [3]: 50300 | antibody binding signal [4]: 699 | antibody binding signal [5]: 5740 | antibody binding signal [6]: 19600 | antibody binding signal [7]: 2200 | antibody binding signal [8]: 464 | antibody binding signal [9]: 2440 | antibody binding signal [10]: 659 | antibody binding signal [11]: 491 | antibody binding signal [12]: 427

NKAAAGGTPSPPGAS
antibody binding signal [1]: 305 | antibody binding signal [2]: 284 | antibody binding signal [3]: 2040 | antibody binding signal [4]: 3410 | antibody binding signal [5]: 269 | antibody binding signal [6]: 1160 | antibody binding signal [7]: 628 | antibody binding signal [8]: 1030 | antibody binding signal [9]: 1570 | antibody binding signal [10]: 777 | antibody binding signal [11]: 202 | antibody binding signal [12]: 1620
